The full ranking holds about 33,000 sequences; the median of “E-score (-0.5 to 0.5)” is about -0.043, and the highest 2% start at about 0.37. The list shows a part of the results.
biological target: T1, Upc2 (UniProt Q12151); assay: PBM E-score (8-mer binding enrichment) (E-score (-0.5 to 0.5)); higher = stronger / more preferred TF binding; most listed sequences are background and not binding sites; conditions: protein concentration: 200 nM; construct: GST-full length
T1 sequence: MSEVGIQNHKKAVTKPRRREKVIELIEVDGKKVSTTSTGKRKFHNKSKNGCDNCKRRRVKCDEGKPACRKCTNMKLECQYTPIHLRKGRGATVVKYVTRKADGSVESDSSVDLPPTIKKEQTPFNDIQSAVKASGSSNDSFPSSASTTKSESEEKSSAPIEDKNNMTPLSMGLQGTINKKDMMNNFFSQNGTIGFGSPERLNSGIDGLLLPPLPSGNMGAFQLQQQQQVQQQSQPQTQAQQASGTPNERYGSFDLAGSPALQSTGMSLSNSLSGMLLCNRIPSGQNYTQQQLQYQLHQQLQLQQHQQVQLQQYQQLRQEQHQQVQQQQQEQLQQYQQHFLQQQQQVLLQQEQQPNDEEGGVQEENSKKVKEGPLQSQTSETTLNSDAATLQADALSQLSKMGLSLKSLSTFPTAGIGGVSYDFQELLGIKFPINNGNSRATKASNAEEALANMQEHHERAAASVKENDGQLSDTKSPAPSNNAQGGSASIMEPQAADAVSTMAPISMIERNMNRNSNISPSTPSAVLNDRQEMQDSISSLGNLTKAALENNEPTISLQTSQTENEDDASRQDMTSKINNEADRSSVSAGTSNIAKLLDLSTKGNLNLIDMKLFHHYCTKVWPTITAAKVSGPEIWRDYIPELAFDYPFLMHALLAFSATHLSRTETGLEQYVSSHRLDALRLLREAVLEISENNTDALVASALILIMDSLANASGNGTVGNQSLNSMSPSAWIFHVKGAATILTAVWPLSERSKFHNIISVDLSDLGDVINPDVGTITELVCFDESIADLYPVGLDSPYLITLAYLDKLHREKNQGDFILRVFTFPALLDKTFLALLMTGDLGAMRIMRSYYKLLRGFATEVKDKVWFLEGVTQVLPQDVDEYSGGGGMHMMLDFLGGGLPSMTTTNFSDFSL
In short: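 Each ungapped eight-base word and its reverse complement, pooled, received an E-score from the Universal PBM Analysis Suite. Underlying scans, normalised with masliner, recorded fluorescent anti-GST bound to GST-tagged yeast transcription factors. These were applied at about 100-200 nM to universal all-10-mer Agilent arrays double-stranded by primer extension.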

Sequence | PBM E-score
CGCACGCG | 0.0471
GAATGGGC | -0.0327
ACTAAAGG | -0.0401
ATTCACAA | -0.108
CCCCTTCC | -0.25
ATCGGTGG | -0.0649
ATCCGATG | 0.0967
CAGAGCAC | -0.0415
GGGGGCAC | -0.231
GATCTGGC | -0.0503
CGAAGGCC | 0.127
AGAGCGGG | -0.274
AGGGCCCA | -0.117
ACCCATCA | -0.0201
AACTGGCT | -0.196
GTCCCCTA | -0.281
CATACGAA | 0.466
CTTCCCGC | -0.0738
AGTGAACT | -0.117
AATAAATC | -0.0576
CCTAATCC | -0.161
AAAAGGCG | 0.111
GATAAGGC | 0.00098
GAGTTGAA | 0.0719
CTTCATTC | -0.06

Sequence | PBM E-score
ATATCTGG | -0.206
ACTACGAC | 0.272
CTCCGCAG | -0.128
ATACGTGG | 0.264
CGTAGAAG | 0.268
GGTTTGAC | 0.0773
TAAATCCA | 0.092
CACCCTAC | 0.0343
CTGGCGCC | -0.13
CGTGATCC | -0.24
CTGAGCTC | -0.175
CGGGGAGA | -0.235
CCCTAAAG | -0.18
GCATATAA | 0.179
CTCGCTCA | 0.314
CTGCCTTA | -0.212
ATCGGATA | 0.223
CACATTGC | -0.104
CAAAAGAC | -0.0803
ACTATATG | 0.155
TTAGTGAA | -0.0194
AGAATCGG | 0.0146
CAAGGCCC | -0.134
GAGGATGC | -0.155
GATGCCCA | -0.0522

Sequence | PBM E-score
TACCAGGA | -0.0405
AACCTCAG | 0.0132
AAGCAAGG | -0.0445
ATGTAGCA | -0.115
TAAAGTCA | 0.0294
GGAAGCAC | -0.0722
AGGGGAAT | -0.226
CGACTCAC | 0.0192
CATATCCC | -0.029
CTAGAGAA | -0.0312
CTTAGAGA | -0.0866
CGCAAAAG | -0.0214
TATTGCAA | 0.127
CGTACCTA | 0.376
AAACAACT | -0.205
CGGTCAGC | -0.00946
AAATTAGC | 0.0443
CACCTCCC | -0.174
GTATATCA | 0.316
GCCGAGCA | -0.092
AAAGAGGA | -0.308
AGAAGGGA | -0.403
GGAGGTTA | -0.0978
ACGGCCGC | 0.193
GGAAGGGA | -0.298

Sequence | PBM E-score
CGAGTACC | 0.171
AGGCGCAC | -0.119
CACTTCAA | -0.0335
AATGATAC | 0.163
ATACTGTA | 0.117
CATTTGCC | -0.258
GACGTCTA | -0.16
ACAACCGG | -0.0829
TTCTGAAA | -0.116
CTTTACCC | -0.00452
AGGGTGAA | -0.0793
CATATTCA | -0.0449
CGGCATGA | 0.152
CACTGATC | -0.202
CGCCCTTA | -0.0749
CCTGAAAC | -0.00472
CTCTAGGC | -0.269
CCGGACGG | -0.22
GGAGACCA | -0.347
CTGCGTGC | -0.075
CCCTGCTC | -0.254
AGTCGTAT | 0.467
CGACCCTA | 0.0368
CTTAAATA | -0.0688
GGTGACCA | -0.176

Sequence | PBM E-score
GGCGGACA | -0.0948
ACTCCCCG | -0.0405
AATTGCCG | 0.0801
GCCAGTTA | 0.0528
ACCCATTA | 0.102
GCGTATCC | 0.2
CAAGTGTG | -0.243
AAGGGGCT | -0.148
GTGCTTGA | 0.0959
CCCACGCG | -0.126
CGAACACG | 0.19
GGCTTGGA | -0.151
CCGATGCG | -0.034
CGGTACGA | 0.474
GATGGTAA | 0.0128
CGACGTCG | 0.262
GACAGAGA | 0.0558
GATTATCA | -0.108
AGTTGGCG | -0.0259
CGAAGTCG | 0.253
ACCATAGG | -0.116
GAGTTAGA | -0.202
AATAAAAA | 0.0789
CGCGTTTA | 0.415
AAGGAGAC | -0.286

Sequence | PBM E-score
AGGTAGCA | -0.204
GGTAATAA | 0.127
AGCAATAT | -0.0978
AGAGTCAA | -0.308
CTAATTAC | 0.0177
CGAAGCCG | -0.0199
ACATGCTA | -0.235
CATGGGAA | -0.0246
ATGTACGG | 0.373
CTTGTGGA | -0.291
CTTCCTGC | -0.402
CAGTGCTA | -0.0362
AAATTAAG | -0.0662
CTATAACC | 0.157
CCATGCGG | -0.196
AGTTATTA | 0.0498
AGCCTGTG | -0.207
ATCTCTAC | -0.00014
CACTGCCG | -0.093
GACTTTAA | -0.0609
GTCATGCA | -0.237
CCCCCACG | -0.275
ACATCGGA | 0.18
AAAATACA | 0.00883
CGAATAGC | 0.213

Sequence | PBM E-score
GAAGGGCA | -0.21
CAGTCACC | -0.265
ACCTTGTG | -0.0669
ATAACAAA | -0.00968
ACAACTTA | -0.00056
AGACAGGG | -0.226
GTCCGTTA | 0.206
AAGTAGCA | -0.121
CCTGTCAG | -0.255
ACTGCGCC | -0.147
ATGGAACC | -0.133
ACGGGTCT | 0.0102
AGGATTTC | -0.151
ATAATGCC | -0.121
TACTCTGA | -0.0377
CATTTCCC | -0.0794
CGTCCTAA | -0.121
GCGTGCAC | -0.0519
CGCGTTAC | 0.195
GACCTAGA | -0.0861
CATAACGG | -0.244
GTTAAAAC | 0.195
TTCTAAAA | 0.0341
AAGATGCC | 0.00959
CTCCAAAG | -0.0116

Sequence | PBM E-score
AGGGGAAC | -0.0501
ACTTTAGC | -0.00056
CCTACTCG | 0.058
CATAAACC | -0.075
AGGTATGG | -0.119
ATGTCTAC | 0.021
AAAAAACT | 0.028
GATACATC | -0.00058
ATGTTGGA | 0.0262
GCTTTCCA | -0.167
GGTTTTCA | 0.133
ATGTCGGG | -0.0783
CAGATCGA | -0.0705
AGGCCGAG | -0.156
TGGCTGAA | -0.197
GCACGAAC | 0.25
CCATCTAA | -0.123
GGAATCAC | -0.101
AGAGCACG | -0.0743
AACACTAA | 0.00496
AACAACTG | -0.191
GGAAATGA | -0.0982
GATAAGGA | -0.11
AATCACGT | 0.221
CGCTAGCA | -0.159

Sequence | PBM E-score
AGCCATGC | -0.243
AGATGGGG | -0.442
AACTTAGA | 0.00735
ACGAGCGT | 0.386
CGTCTGGA | -0.122
AGCTCACA | -0.0816
CACTAGAC | -0.107
ACTGCTAA | -0.233
ATAGTGCA | 0.0852
GGATCCTA | -0.011
AGCTTTAT | -0.0666
GACATTGA | 0.107
AAATAGCA | -0.186
CTCGCGGA | -0.0694
CCATCCAG | -0.251
ATTTCCAA | -0.00535
GATGCAGA | -0.192
CTAACGAG | 0.343
CCTGAACG | 0.394
